Reference: PMC12820563, “FoxP3 forms a head-to-head dimer in vivo and stabilizes its multimerization on adjacent microsatellites”
This is one part of the list.

The sequences below were run against T1, MBP-FoxP1dN (Mus musculus, UniProt P58462 326-579) (assay: PD-seq (MBP pull-down with sequencing); 20 mM Tris-HCl pH 7.5, 100 mM NaCl, 1.5 mM MgCl2, 0.4 uM protein, 0.1 uM dsDNA library, 30 min, room temperature, amylose pull-down; high values mean tight binding). Details: protein: recombinant; tags: His6-MBP; chain copies: 2; dsDNA, one strand shown.
T1 sequence: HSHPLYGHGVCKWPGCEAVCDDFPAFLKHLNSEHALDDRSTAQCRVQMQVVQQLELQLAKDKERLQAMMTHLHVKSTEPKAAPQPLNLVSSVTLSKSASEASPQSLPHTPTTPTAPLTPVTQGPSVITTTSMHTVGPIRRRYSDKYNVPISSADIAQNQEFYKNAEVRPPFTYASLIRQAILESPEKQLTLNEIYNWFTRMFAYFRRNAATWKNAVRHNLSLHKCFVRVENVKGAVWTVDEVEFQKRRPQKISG
Method in brief: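 The N-terminus-lacking fragment of mouse FoxP3 or FoxP1 carried a His6-MBP tag and was expressed in E. coli. At 0.4 µM it was incubated with 0.1 µM Klenow-filled degenerate double-stranded DNA library for 30 min at room temperature in Tris pH 7.5 buffer with NaCl and MgCl2, and complexes were caught on amylose resin, washed three times, released with proteinase K, PCR-barcoded and Illumina-sequenced. Binding is reads-per-million enrichment of pull-down over input with replicates pooled.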

Going from “GATGATTGTTCTCCCAGCTGATGAATTGTCCTAATCGAGTAAACAAATTTTCCTAATCTTTCTGTTCAAGCGCCATCTAC” to “GATGATTGTTCTCCCAGCTGATGAATTCTAAATATCGAGTAAACAAATTTTCCTAATCTTTCTGTTCAAGCGCCATCTAC”, the binding signal rises from 1.27 RPM ratio (pull-down/input) to 1.76 RPM ratio (pull-down/input).

Compared with “GATGATTGTTCTCCCAGCTGATGAATTTGGTTCGTCGAGTAAACAAATTTTCCTAATCTTTCTGTTCAAGCGCCATCTAC”, “GATGATTGTTCTCCCAGCTGATGAATTTTGAACCTCGAGTAAACAAATTTTCCTAATCTTTCTGTTCAAGCGCCATCTAC” is lower in binding signal: 0.948 RPM ratio (pull-down/input) for the first, 0.855 RPM ratio (pull-down/input) for the second.

First: GATGATTGTTCTCCCAGCTGATGAATTAAAATGATCGAGTAAACAAATTTTCCTAATCTTTCTGTTCAAGCGCCATCTAC
Second: GATGATTGTTCTCCCAGCTGATGAATTTTTTCCTTCGAGTAAACAAATTTTCCTAATCTTTCTGTTCAAGCGCCATCTAC
The binding signal of the first is higher: 0.937 RPM ratio (pull-down/input) for the first, 0.862 RPM ratio (pull-down/input) for the second.

Compared with “GATGATTGTTCTCCCAGCTGATGAATTACTATGCTCGAGTAAACAAATTTTCCTAATCTTTCTGTTCAAGCGCCATCTAC”, “GATGATTGTTCTCCCAGCTGATGAATTGTAGCGTTCGAGTAAACAAATTTTCCTAATCTTTCTGTTCAAGCGCCATCTAC” is higher in binding signal: 1.03 RPM ratio (pull-down/input) for the first, 1.09 RPM ratio (pull-down/input) for the second.

First: GATGATTGTTCTCCCAGCTGATGAATTCGCATAGTCGAGTAAACAAATTTTCCTAATCTTTCTGTTCAAGCGCCATCTAC
Second: GATGATTGTTCTCCCAGCTGATGAATTTGTATTCTCGAGTAAACAAATTTTCCTAATCTTTCTGTTCAAGCGCCATCTAC
The binding signal of the first is lower: 0.862 RPM ratio (pull-down/input) for the first, 1.44 RPM ratio (pull-down/input) for the second.

Going from “GATGATTGTTCTCCCAGCTGATGAATTTGTCGACTCGAGTAAACAAATTTTCCTAATCTTTCTGTTCAAGCGCCATCTAC” to “GATGATTGTTCTCCCAGCTGATGAATTGAGTAGGTCGAGTAAACAAATTTTCCTAATCTTTCTGTTCAAGCGCCATCTAC”, the binding signal falls from 0.975 RPM ratio (pull-down/input) to 0.79 RPM ratio (pull-down/input).

First: GATGATTGTTCTCCCAGCTGATGAATTTCCGACGTCGAGTAAACAAATTTTCCTAATCTTTCTGTTCAAGCGCCATCTAC
Second: GATGATTGTTCTCCCAGCTGATGAATTATCTAGGTCGAGTAAACAAATTTTCCTAATCTTTCTGTTCAAGCGCCATCTAC
The binding signal of the first is lower: 0.803 RPM ratio (pull-down/input) for the first, 0.824 RPM ratio (pull-down/input) for the second.

Compared with “GATGATTGTTCTCCCAGCTGATGAATTTGGGATATCGAGTAAACAAATTTTCCTAATCTTTCTGTTCAAGCGCCATCTAC”, “GATGATTGTTCTCCCAGCTGATGAATTAATACGTTCGAGTAAACAAATTTTCCTAATCTTTCTGTTCAAGCGCCATCTAC” is higher in binding signal: 0.916 RPM ratio (pull-down/input) for the first, 1.15 RPM ratio (pull-down/input) for the second.

Compared with “GATGATTGTTCTCCCAGCTGATGAATTGTTTCTGTCGAGTAAACAAATTTTCCTAATCTTTCTGTTCAAGCGCCATCTAC”, “GATGATTGTTCTCCCAGCTGATGAATTGCAAGCGTCGAGTAAACAAATTTTCCTAATCTTTCTGTTCAAGCGCCATCTAC” is lower in binding signal: 1.25 RPM ratio (pull-down/input) for the first, 1.11 RPM ratio (pull-down/input) for the second.
